In PubChem BioAssay AID463173 (ICCB-Longwood Screening Facility, Harvard Medical School, 2010):
Hit rate of the full screen: of about 52,000 compounds, about 1,700 (3.3%) were called active. Cut-off read from the data, not from the text of the source: active = survival mostly below about 52% (no sharp cut-off); inactive = mostly above about 56%. The list shows a part of the results.

Each molecule was assayed on Wild type (assay: growth inhibition of S. aureus wild type versus tarO mutant, primary screen, teichoic acid synthesis inhibitors, RN4220, OD600 (AID 463173)). Settings: S. aureus RN4220 wild type/DeltatarO growth, OD600, 18 h, active compounds read low, screened at 18.75 µg/mL (by protocol).
With `Cc1nc2c(C(=O)NCc3ccccc3Cl)cnn2c(C)c1Cc1ccccc1` the survival was inactive: 85%.
For `COc1ccc(NC(=O)Cn2c(=O)n(Cc3ccccc3)c(=O)c3oc4ccccc4c32)cc1Cl`, the survival was inactive: 76%.
For `COc1cccc(-c2csc(-c3c(N)c(C(=O)c4ccccc4)n4ccccc34)n2)c1`, the survival was inactive: 72%.
For `COc1cc(OC)cc(C(=O)c2coc3ccc(O)c(CN4CCOCC4)c23)c1`, the survival was inactive: 104%.
With `O=C(CSc1nc2c([nH]c3ccccc32)c(=O)n1-c1ccc(Cl)cc1)N1CCCCCC1` the survival was inactive: 88%.
For `Cn1cc(S(=O)(=O)N2CCCCC2)cc1C(=O)N1CCN(c2ccccc2F)CC1`, the survival was inactive: 87%.
For `CC(C)(CO)NC(=O)c1ccc(Cl)c(S(=O)(=O)N2CCCCC2)c1`, the survival was inactive: 114%.
With `CCOC(=O)c1ccccc1NC(=O)Cn1c(=O)n(CCCC(=O)NCc2ccc3c(c2)OCO3)c(=O)c2ccccc21` the survival was inactive: 91%.
`OCC#Cc1cnc2ccccc2c1` was tested, and the survival was inactive: 104%.
`CN(C(=O)c1c2c(nc3ccccc13)C(=O)N(C1CCCCC1)C2)c1ccc(F)cc1` was tested, and the survival was active: -3%.
In the case of `COC(=O)c1c(SCC(=O)Nc2cccc(Cl)c2C)[nH]c2ccccc2c1=O`, the survival is reported as inactive: 97%.
`Cc1ccc(S(=O)(=O)NCCc2csc3nc(-c4ccccc4F)nn23)cc1C` was tested, and the survival was inactive: 84%.
With `CCOC(=O)c1c(C)oc2ncnc(N3CCN(c4ccccc4)CC3)c12` the survival was inactive: 68%.
For `O=[N+]([O-])c1ccc(S(=O)(=O)N2CCn3cccc3C2c2ccccc2F)cc1` (stereo unspecified), the survival was inactive: 132%.
For `CC(NC(=O)C1CCN(S(=O)(=O)c2ccc3c(c2)oc(=O)n3C)CC1)c1ccccc1` (stereo unspecified), the survival was inactive: 95%.
For `Cc1ccc(C)c(N2CCN(c3nc4ccc(Cl)cc4n4cnnc34)CC2)c1`, the survival was inactive: 86%.
In the case of `CC(C)(C)OC(=O)N1CCC(c2c(C(=O)N3CCC(c4ccccc4)C3)cnn2-c2ccc(Cl)cc2)CC1` (stereo unspecified), the survival is reported as inactive: 73%.
For `COc1cccc(-c2nc(SCc3ccc(C)cc3)n3[nH]c(=O)cc3n2)c1`, the survival was inactive: 129%.
`COc1ccccc1-c1nc(S(=O)(=O)c2ccccc2)c(N2CCC(C)CC2)o1` was tested, and the survival was active: -5%.
For `Cc1ccccc1OCc1nnc(SCc2cc(=O)c3ccc(C)c(C)c3[nH]2)n1C`, the survival was inactive: 71%.
For `CC1CCCCN1C(=O)Cn1cc(C#N)c2ccccc21` (stereo unspecified), the survival was inactive: 92%.
For `O=S(=O)(c1ccccc1)c1cccc(S(=O)(=O)N2CCCC2)c1`, the survival was inactive: 103%.
`Cc1ccc(-c2cc3c(n2-c2ccc(F)cc2)CC(C)(C)CC3=O)cc1` was tested, and the survival was inactive: 91%.
With `Cc1cccc(NC(=O)CSc2nc3ccccc3c3nc(CCc4c(C)n[nH]c4C)nn23)c1` the survival was inactive: 73%.
For `CC(C)(C)NC(=O)CN1CCC(n2nnc3cc(F)ccc32)CC1`, the survival was inactive: 96%.
In the case of `COc1ccccc1CCNC(=O)C(=O)NCC(c1ccco1)S(=O)(=O)c1ccccc1` (stereo unspecified), the survival is reported as inactive: 73%.
With `COc1ccc(Nc2nc3ccccc3nc2NS(=O)(=O)c2ccc(Cl)cc2)cc1OC` the survival was inactive: 52%.
In the case of `COc1ccccc1-c1cc(C(=O)NCCc2ccccc2)no1`, the survival is reported as inactive: 72%.
For `CC(C)c1cnc2c(c1SCC(=O)O)c(=O)n(C)c(=O)n2C`, the survival was inactive: 74%.
In the case of `CCOC(=O)c1cccc(NC(=O)CSc2nc3cc4ccccc4cc3[nH]2)c1`, the survival is reported as inactive: 23%.
For `O=S(=O)(Nc1cccc(F)c1)c1ccc2[nH]c3c(c2c1)CCCCC3`, the survival was inactive: 81%.
`CC(=O)Nc1ccc(NC(=O)c2cnn(-c3ccccc3)c2C2CCN(C(=O)OC(C)(C)C)CC2)cc1` was tested, and the survival was inactive: 84%.
With `CCC(C(=O)NCc1cccc(Br)c1)n1nc(C)c2c(C)n(-c3ccccc3)nc2c1=O` (stereo unspecified) the survival was inactive: 94%.
In the case of `CCC(=O)N1CCc2cc(CNC(=O)c3ccc(C#N)cc3)ccc21`, the survival is reported as inactive: 71%.
In the case of `CN(C(=O)CSc1nc(-c2ccco2)cc(C(F)(F)F)n1)c1ccccc1`, the survival is reported as inactive: 110%.
In the case of `O=C(CNC(=O)c1ccccc1F)OCc1cc(=O)n2nc(C3CC3)sc2n1`, the survival is reported as inactive: 136%.
For `CCOc1ccccc1Nc1nnc(-c2cc3cc(Cl)ccc3oc2=O)s1`, the survival was inactive: 99%.
With `COc1cc(OC)cc(C(=O)Nc2ccc3c(c2)OCCO3)c1` the survival was inactive: 78%.
`COc1ccc(-c2nc3sc(CCNC(=O)C(=O)Nc4ccc(C)c(F)c4)c(C)n3n2)cc1` was tested, and the survival was inactive: 66%.
In the case of `CCCn1nc(NC(=O)c2cccc(Cl)c2)c2cc3cccc(C)c3nc21`, the survival is reported as inactive: 87%.
`CCOc1ccc(NC(=O)CSC2=Nc3ccccc3C3=NC(Cc4ccccc4)C(=O)N23)cc1` (stereo unspecified) was tested, and the survival was inactive: 79%.
`CCOC(=O)c1c(C)[nH]c(C)c1S(=O)(=O)N1CCCC(C(=O)Nc2cccc(C)n2)C1` (stereo unspecified) was tested, and the survival was inactive: 111%.
With `COc1ccc(-c2csc(N)n2)cc1OC` the survival was inactive: 112%.
For `CCc1ccc(S(=O)(=O)c2cn(C)c3cc(F)c(F)cc3c2=O)cc1`, the survival was inactive: 134%.
With `Cc1ccc(NC(=O)Cn2c(-c3nonc3N)nc3ccccc32)cc1C` the survival was inactive: 149%.
In the case of `COc1ccccc1CN1CCN(C2CCN(C(=O)Nc3ccccc3)CC2)C(=O)C1=O`, the survival is reported as inactive: 83%.
For `CC(C)(C)C(=O)Nc1cccc(C(=O)OCc2cc(=O)n3nc(C4CC4)sc3n2)c1`, the survival was inactive: 56%.
With `Cc1ccccc1NC(=O)CCNC(=O)Cn1ccc2ccccc2c1=O` the survival was inactive: 77%.
`CC(Nc1ccc(-c2nc(-c3ccco3)no2)cc1[N+](=O)[O-])c1ccccc1` (stereo unspecified) was tested, and the survival was inactive: 123%.
`CN1CCN(CCCNc2c(N)c(=O)oc3ccccc23)CC1` was tested, and the survival was inactive: 106%.
With `CCS(=O)(=O)c1oc(-c2ccc(F)cc2)nc1S(=O)(=O)c1ccc(Br)cc1` the survival was active: -1%.
`CCOC(=O)c1ccc(NC(=O)CC2C(=O)N(c3ccc(C)cc3)C(=O)N2C2CCCC2)cc1` (stereo unspecified) was tested, and the survival was inactive: 134%.
`COc1cc(NC(=O)c2cc3ccc4cccnc4c3[nH]2)cc(OC)c1OC` was tested, and the survival was inactive: 73%.
For `COc1ccccc1N1CCN(S(=O)(=O)CCNC(=O)C2CC(=O)N(c3ccccc3)C2)CC1` (stereo unspecified), the survival was inactive: 59%.
`CCS(=O)(=O)c1nc(S(=O)(=O)c2ccc(C)cc2)c(NCC(C)C)s1` was tested, and the survival was inactive: 76%.
For `CCOC(=O)N1CCc2c(sc(NCc3sccc3C)c2C(=O)Nc2cc(Cl)ccc2OC)C1`, the survival was inactive: 80%.
